Data reported in PubChem BioAssay AID2546 (National Center for Advancing Translational Sciences (NCATS), 2010).
Out of some 310,000 compounds screened, about 11,000 (3.5%) were called active. The inconclusive results got no clear call from the source; some entries with a clear call stand among them for comparison. Calls follow the shape of the dose curve; as a rule, active = well fitted inhibition curve with a large enough effect; inconclusive = small, poorly fitted or top-dose-only effect, or effect the other way; inactive = flat fitted curve, though single readings scatter. No potency is given beside an inconclusive call; the fits are too rough.

assay: VP16 counterscreen qHTS for inhibitors of ROR gamma transcriptional activity; conditions: Drosophila S2 Gal4-VP16 UAS-luciferase, luminescence, 20 h; activity, negative = inhibition: at 53.6 µM (top of the series);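 also: Gal4-VP16 expression switched on by copper sulfate through the metallothionein promoter; nearly all actives have a fitted effect of over 50% in size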
% is scaled to controls: 0 for no effect and ±100 for the full control effect; potency is read from the fitted curve at half-maximal effect; tags tell the direction and shape of the fitted curve.

SMILES | Potency | activity, negative = inhibition
COc1ccccc1N1CN(Cc2ccccc2)CNC1=S | inconclusive [inhibitor, single point] | –
CCCc1nc2nc(C)c(NS(=O)(=O)c3ccc(Cl)cc3)c(=O)n2[nH]1 | – | inactive: 4.65%
COc1ccc(C2c3c(ncn(CCN4CCOCC4)c3=N)Oc3ccc4ccccc4c32)cc1OC (centres undefined) | active: 12.6 µM | –
O=C(O)c1ccccc1NC1CCCCC1NS(=O)(=O)c1ccccc1 (centres undefined) | inconclusive [inhibitor, single point] | –
S=c1[nH]cc(-c2ccccc2)[nH]1 | – | inactive: -4.02%
Cc1cc2cc(C(c3nnnn3Cc3ccco3)N3CCc4ccccc43)c(=O)[nH]c2cc1C (centres undefined) | – | inactive: -2.15%
O=c1c2ccccc2ncn1CCCSc1ccccc1 | inconclusive [inhibitor, single point] | –
C=C(C)COc1ccc(-c2ncncc2-c2ccccc2OC)c(O)c1 | inconclusive [inhibitor, single point] | –
CCN(CC)CCCNC(=O)c1cn(CC)c2ccc(S(=O)(=O)N3CCc4ccccc4C3)cc2c1=O | – | inactive: -4.46%
Cc1ccc(C)c2[nH]c(=O)c(CN(Cc3nnnn3C3CCCCC3)CC3CCCO3)cc12 (centres undefined) | – | inactive: -21.4%
COc1ccc2c(c1)CCC1=C2NC(=S)NC1c1ccc(N(C)C)cc1 (centres undefined) | active: 3.55 µM | –
COc1ccc(/C=C/C(=O)c2ccc(O)cc2O)cc1OC | inconclusive [inhibitor, partial curve] | –
Cc1cccc(-n2c(C)nc3cc(C(=O)NCC4CCCO4)ccc32)c1 (centres undefined) | – | inactive: 14%
Oc1[nH]c2ccccc2c1N=NC(=S)NCCc1ccccc1 | active: 3.16 µM | –
Cc1ccc(-c2nc(N/N=C/c3ccncc3)c3ccccc3n2)cc1 | active: 0.282 µM | –
Cc1ccc2nc(-c3ccc(NS(=O)(=O)c4c(C)n(C)c(=O)n(C)c4=O)cc3)sc2c1 | inconclusive [inhibitor, single point] | –
C=C(C)COc1ccc(-c2[nH]ncc2-c2ccc(OC)cc2)c(O)c1 | inconclusive [inhibitor, single point] | –
Cc1cc(=O)n2cccc(O)c2n1 | active: 1.78 µM | –
N#C/C(C(=O)Nc1ccc(Cl)cc1)=C(/S)Nc1ccccc1 | inconclusive [inhibitor, single point] | –
COc1cccc(CNC(=O)C(C(=O)NCc2cccc(OC)c2)c2ncc(C(F)(F)F)cc2Cl)c1 | inconclusive [inhibitor, single point] | –
CC(=O)c1ccc(N2CCN(C(=O)CCCc3nc4ccccc4s3)CC2)cc1 | inconclusive [inhibitor, single point] | –
Cc1sc2ncnc(Nc3ccccc3)c2c1C | – | inactive: 7.17%
CCCN(CCC)Cc1c(C(=O)N/N=C/c2ccco2)nnn1-c1nonc1N | – | inactive: -12.7%
CCc1nc2nc(C)c(NS(=O)(=O)c3cccs3)c(=O)n2[nH]1 | – | inactive: 7.93%
O=C(Nn1cc(C(=O)N2CCN(c3ccccc3F)CC2)c2ccccc2c1=O)c1cnccn1 | inconclusive [inhibitor, single point] | –
CSc1nnc(NC(=O)c2nc(S(=O)(=O)Cc3ccccc3F)ncc2Cl)s1 | active: 10 µM | –
CC(C)COc1ccc(C(=O)N/N=C/c2ccoc2)cc1 | active: 14.1 µM | –

SMILES | Potency | activity, negative = inhibition
O=C(O)CCCN1C(=O)/C(=C\C(Cl)=C\c2ccccc2)SC1=S | active: 1.58 µM | –
COc1ccc(C(=O)Oc2c(CN3CCOCC3)cc(Cl)c3cccnc23)cc1 | active: 6.31 µM | –
N/C(=N\c1nc2ccccc2o1)NC(=O)c1ccc(Cl)cc1 | inconclusive [inhibitor, single point] | –
CCCCn1c(=O)n(CC(=O)Nc2ccc(OC)c(Cl)c2)c(=O)c2c1nc(CO)n2CCC | – | inactive: -16.2%
CN(C)/C=N/c1nc2nccc(-c3cccc(Cl)c3)n2n1 | – | inactive: 1.35%
CCc1ccc(NC(=O)c2ccccc2SC)cc1 | – | inactive: -5.73%
CCc1cccc2c(C(=O)CCl)c[nH]c12 | active: 14.1 µM | –
CN1CCN(C2=Cc3cc(Cl)ccc3Sc3cc(F)ccc32)CC1 | – | inactive: 0.152%
COC(=O)c1ccc(/C=N/Nc2nc(C)c(C)s2)cc1 | inconclusive [inhibitor, partial curve, poor fit] | –
C/C(=N\NC(=O)CCC(=O)O)c1c(-c2ccccc2)c2cc(Br)ccc2[nH]c1=O | – | inactive: -2.97%
COc1cccc(-n2cnc(=O)c3cccnc32)c1 | – | inactive: -6.72%
COc1cc(CN(C)Cc2nc3cc(C(F)(F)F)ccc3c(=O)[nH]2)ccc1OC(F)F | inconclusive [inhibitor, single point] | –
COc1ccc(Oc2c(O)c3ccccc3n(C)c2=O)cc1 | – | inactive: 2.85%
Cc1nn(-c2ccc(Cl)cc2)c2[nH]c(=O)c(CNCc3ccc4c(c3)OCO4)cc12 | – | inactive: 4.89%
Cc1ccc(O)c(C(=O)c2cc(C#N)c(=O)n(C(C)c3ccccc3)c2)c1 (centres undefined) | inconclusive [inhibitor, single point] | –
CC(C)CNC(=S)Nc1ccc(F)cc1 | inconclusive [inhibitor, single point] | –
Cc1cc(Nc2ccc(C(C)C)cc2)n2ncnc2n1 | inconclusive [inhibitor, single point] | –
CC(C)C(=O)Nc1cccc(NC(=S)NC(=O)c2ccc([N+](=O)[O-])cc2)c1 | inconclusive [inhibitor, single point] | –
COCCNc1nnc(SCC(=O)c2c[nH]c3ccccc23)s1 | active: 35.5 µM | –
Cc1cccc(CS(=O)(=O)Cc2ccc(C(=O)NC3CCCCCC3)o2)c1 | inconclusive [inhibitor, single point] | –
Cn1nc(-c2ccc3c(c2)OCCO3)c2ccccc2c1=O | inconclusive [inhibitor, single point] | –
COc1ccc(C(=O)CC(=O)C(=O)Nc2cccc(F)c2)cc1 | active: 7.08 µM | –
Cc1ccc(OCC(=O)c2cc(C)n(-c3ccccc3)c2C)c([N+](=O)[O-])n1 | inconclusive [inhibitor, single point] | –
COC(=O)c1scc(C)c1NC(=O)/C=C/C(=O)O | inconclusive [inhibitor, single point] | –
COc1ccc(OC)c(-c2csc(NC(=O)Cc3cc(OC)c(OC)c(OC)c3)n2)c1 | – | inactive: -27.1%
CCOc1ccc2nc(SC3CC(=O)N(c4ccc(OC)cc4)C3=O)sc2c1 (centres undefined) | inconclusive [inhibitor, single point] | –
NS(=O)(=O)c1ccc(CNS(=O)(=O)c2cccc3nonc23)cc1 | – | inactive: -4.81%

SMILES | Potency | activity, negative = inhibition
Cc1cc(C(=O)NC2CCCN(Cc3ccccc3F)C2)n[nH]1 (centres undefined) | – | inactive: -7.08%
COc1ccc(-c2noc(CCC(=O)Nc3ccc4c(c3)OCCO4)n2)cc1 | inconclusive [inhibitor, full curve] | –
COc1ccc2c(c1)c(CC(=O)OCC(=O)N(C)C)c(C)n2C(=O)c1ccc(Cl)cc1 | – | inactive: 15.3%
COc1ccc(OC)c(C2=Nn3c(nnc3-c3ccccc3OC)SC2)c1 | – | inactive: -7.08%
Cc1ccccc1-c1ccc2ncnc(N3CCN(C)CC3)c2c1 | inconclusive [inhibitor, single point] | –
C[C@@H]1C(=O)OC2C[C@@]34[C@H]5C[C@@H](C(C)(C)C)[C@@]36C(O)C(=O)O[C@H]6O[C@@]4(C(=O)O5)[C@]21O (some centres undefined) | – | inactive: -0.773%
COc1ccc(CCC(=O)N2CCN(c3ccccc3)CC2)cc1OC | – | inactive: -7.73%
COC(=O)c1sccc1NC(=O)Nc1ccc(C)cc1C | inconclusive [activator, single point] | –
COc1cc(/C=C2\CCc3c2nc2ccccc2c3C(=O)O)cc(OC)c1OC | inconclusive [inhibitor, partial curve] | –
O=C(COC(=O)c1cccs1)Nc1nc(-c2ccccc2)cs1 | – | inactive: 1.4%
COc1cc(OC)cc(C(=O)Oc2c(CN3CCOCC3)cc(Cl)c3cccnc23)c1 | active: 3.16 µM | –
COc1ccc(CCN2Cc3c(N)cccc3C2=O)cc1OC | – | inactive: 1.56%
O=c1c2ccc(Cl)cc2[nH]c(=S)n1CCC1=CCCCC1 | active: 2.51 µM | –
CCCCOc1cccc(C(=O)Nc2ccc(NC(=O)c3ccco3)cc2)c1 | inconclusive [inhibitor, single point] | –
COc1ccc(-c2[nH]ncc2CN2CCC(C(=O)N3CCOCC3)CC2)c(F)c1 | – | inactive: -1.66%
O=C(Nc1cccc(F)c1)Nc1ccc2c(c1)CCC2 | inconclusive [activator, full curve, poor fit] | –
CCOC(=O)N1CCN(C(=S)NC(=O)c2nn(C)cc2Br)CC1 | inconclusive [inhibitor, single point] | –
O=C(/C=C/c1ccncc1)c1cc(Cl)ccc1O | inconclusive [activator, single point] | –
Cc1c(C(=O)N2CCCC2)oc2ccc(Br)cc12 | inconclusive [activator, partial curve] | –
COc1ccccc1COC(=O)N/C=C/c1ccco1 | – | inactive: -4.82%
CCCCn1nnc(NC(=S)NC(=O)c2ccc(OCC)c([N+](=O)[O-])c2)n1 | active: 2.51 µM | –
Cc1ccc(NC(=O)c2cc(S(=O)(=O)NCCc3ccccc3)ccc2F)cc1Cl | inconclusive [inhibitor, single point] | –
COc1ccccc1/C=C1\SC(=S)N(CCC(=O)NCCCN2CCOCC2)C1=O | – | inactive: 2.27%
O=C(c1ccc2c(=O)n(-c3ccccc3)c(=O)[nH]c2c1)N1CCCCC1 | inconclusive [inhibitor, single point] | –
CCN1C(=O)/C(=C/N(C(C)=O)c2ccccc2)N(c2ccccc2)C1=S | inconclusive [inhibitor, single point] | –
